Results are given in words; binding and its absence hold for the method and conditions named. Binding seen in cells or lysates may run through a third protein. Some entries that bind do so weakly or less than the wild type. Blank lines part the entries; values can stand above or below the molecule they belong to.
What was measured:
[1] = target: T1, cadherin-11 (CDH11), endogenous in human primary dermal fibroblasts (human (endogenous in primary dermal fibroblasts)) (UniProt P55287); assay: proximity ligation; in situ PLA for CDH11 and β-catenin on human fibroblasts treated with 10 ng/mL TGFβ1 or TGFβ1 plus 12 ug/mL cANGPTL4; both proteins endogenous
T1 sequence: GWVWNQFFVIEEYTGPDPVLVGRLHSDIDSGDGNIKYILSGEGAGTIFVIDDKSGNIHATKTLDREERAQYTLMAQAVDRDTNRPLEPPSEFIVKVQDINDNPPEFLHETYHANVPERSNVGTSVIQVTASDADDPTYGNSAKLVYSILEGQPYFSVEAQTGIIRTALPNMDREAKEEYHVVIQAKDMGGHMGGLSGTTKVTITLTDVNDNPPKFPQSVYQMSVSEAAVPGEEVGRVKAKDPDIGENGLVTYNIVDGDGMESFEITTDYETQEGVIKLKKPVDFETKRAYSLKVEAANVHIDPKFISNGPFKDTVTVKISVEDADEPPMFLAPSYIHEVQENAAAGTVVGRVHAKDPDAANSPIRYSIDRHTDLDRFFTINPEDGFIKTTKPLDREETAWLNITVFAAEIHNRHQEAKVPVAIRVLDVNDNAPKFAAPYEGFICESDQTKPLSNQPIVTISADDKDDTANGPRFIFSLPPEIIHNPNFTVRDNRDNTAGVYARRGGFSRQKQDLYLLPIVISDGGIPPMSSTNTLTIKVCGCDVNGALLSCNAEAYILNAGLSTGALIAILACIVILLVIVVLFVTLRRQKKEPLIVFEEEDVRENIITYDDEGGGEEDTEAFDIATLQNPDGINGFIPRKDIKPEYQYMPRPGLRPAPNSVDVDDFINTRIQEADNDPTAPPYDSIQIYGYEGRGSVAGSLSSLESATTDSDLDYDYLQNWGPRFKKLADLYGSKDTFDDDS

Protein sequences, listed by entry. Tags and fused reporters are not part of them. Residues count along the entry.
UniProt P19022, residues 160-906: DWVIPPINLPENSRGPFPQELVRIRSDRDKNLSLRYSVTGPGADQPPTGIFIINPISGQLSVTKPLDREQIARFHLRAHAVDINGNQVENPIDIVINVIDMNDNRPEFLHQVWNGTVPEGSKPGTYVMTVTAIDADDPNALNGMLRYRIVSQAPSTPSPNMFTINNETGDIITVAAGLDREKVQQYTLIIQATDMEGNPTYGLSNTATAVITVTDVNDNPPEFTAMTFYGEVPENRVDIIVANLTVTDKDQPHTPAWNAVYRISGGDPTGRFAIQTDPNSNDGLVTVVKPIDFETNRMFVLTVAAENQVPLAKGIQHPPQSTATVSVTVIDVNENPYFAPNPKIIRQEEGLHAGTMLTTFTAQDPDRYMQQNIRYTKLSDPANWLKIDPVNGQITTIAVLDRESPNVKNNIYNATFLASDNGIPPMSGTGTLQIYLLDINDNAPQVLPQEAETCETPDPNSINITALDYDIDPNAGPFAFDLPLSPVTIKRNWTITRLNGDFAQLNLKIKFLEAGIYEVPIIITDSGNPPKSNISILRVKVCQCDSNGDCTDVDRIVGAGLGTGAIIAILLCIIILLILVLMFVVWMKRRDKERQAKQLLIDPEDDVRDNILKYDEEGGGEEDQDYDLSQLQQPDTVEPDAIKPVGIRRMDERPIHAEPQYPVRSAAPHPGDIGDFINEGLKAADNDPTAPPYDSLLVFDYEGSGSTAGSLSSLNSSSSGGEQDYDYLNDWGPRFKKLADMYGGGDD
UniProt P35222: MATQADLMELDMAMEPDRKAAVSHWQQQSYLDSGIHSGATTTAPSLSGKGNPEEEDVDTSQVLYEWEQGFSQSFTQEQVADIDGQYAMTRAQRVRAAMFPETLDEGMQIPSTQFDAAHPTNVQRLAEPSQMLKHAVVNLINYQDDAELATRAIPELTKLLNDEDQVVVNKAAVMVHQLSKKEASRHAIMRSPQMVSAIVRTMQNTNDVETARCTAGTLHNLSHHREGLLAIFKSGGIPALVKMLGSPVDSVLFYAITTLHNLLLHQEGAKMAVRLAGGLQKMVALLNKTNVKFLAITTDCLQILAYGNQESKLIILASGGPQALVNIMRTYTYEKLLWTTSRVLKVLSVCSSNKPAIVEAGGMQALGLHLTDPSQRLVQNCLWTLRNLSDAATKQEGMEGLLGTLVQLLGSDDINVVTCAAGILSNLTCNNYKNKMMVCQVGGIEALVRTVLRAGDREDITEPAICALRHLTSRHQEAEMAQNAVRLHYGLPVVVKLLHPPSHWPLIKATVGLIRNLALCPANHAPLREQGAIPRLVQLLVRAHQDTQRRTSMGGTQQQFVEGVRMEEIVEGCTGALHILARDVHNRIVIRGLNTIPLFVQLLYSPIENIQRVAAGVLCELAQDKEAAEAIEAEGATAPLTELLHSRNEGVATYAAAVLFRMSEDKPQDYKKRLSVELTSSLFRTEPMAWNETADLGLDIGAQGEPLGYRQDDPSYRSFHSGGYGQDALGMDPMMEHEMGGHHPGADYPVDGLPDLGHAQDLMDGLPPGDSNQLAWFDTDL
UniProt Q02248: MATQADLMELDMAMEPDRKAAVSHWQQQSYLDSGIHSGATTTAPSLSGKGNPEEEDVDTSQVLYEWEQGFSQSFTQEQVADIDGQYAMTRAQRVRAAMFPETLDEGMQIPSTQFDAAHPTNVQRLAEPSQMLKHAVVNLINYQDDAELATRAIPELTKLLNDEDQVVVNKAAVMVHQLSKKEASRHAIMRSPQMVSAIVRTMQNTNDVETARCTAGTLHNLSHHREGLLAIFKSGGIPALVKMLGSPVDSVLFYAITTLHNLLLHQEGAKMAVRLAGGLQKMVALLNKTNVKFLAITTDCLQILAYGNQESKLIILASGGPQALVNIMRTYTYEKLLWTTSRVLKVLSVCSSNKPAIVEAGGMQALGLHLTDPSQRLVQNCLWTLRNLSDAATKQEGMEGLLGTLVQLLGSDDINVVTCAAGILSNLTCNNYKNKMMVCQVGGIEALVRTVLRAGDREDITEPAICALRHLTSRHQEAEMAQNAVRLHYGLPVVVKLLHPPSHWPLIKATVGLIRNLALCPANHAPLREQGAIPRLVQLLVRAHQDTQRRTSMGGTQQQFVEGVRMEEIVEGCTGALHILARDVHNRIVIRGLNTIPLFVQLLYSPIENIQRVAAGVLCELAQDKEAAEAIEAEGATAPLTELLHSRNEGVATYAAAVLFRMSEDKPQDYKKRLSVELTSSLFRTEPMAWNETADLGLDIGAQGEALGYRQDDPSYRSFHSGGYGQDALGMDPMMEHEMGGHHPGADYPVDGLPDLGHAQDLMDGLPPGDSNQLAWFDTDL

[2] = target: T2, CDH11 of fibroblasts in mouse wounds (mouse (endogenous in skin wounds)) (UniProt P55288); assay: proximity ligation; PLA on sections of mouse wounds (day 5; ANGPTL4+/+, ANGPTL4-/-, ob/ob with vehicle or cANGPTL4); endogenous proteins
T2 sequence: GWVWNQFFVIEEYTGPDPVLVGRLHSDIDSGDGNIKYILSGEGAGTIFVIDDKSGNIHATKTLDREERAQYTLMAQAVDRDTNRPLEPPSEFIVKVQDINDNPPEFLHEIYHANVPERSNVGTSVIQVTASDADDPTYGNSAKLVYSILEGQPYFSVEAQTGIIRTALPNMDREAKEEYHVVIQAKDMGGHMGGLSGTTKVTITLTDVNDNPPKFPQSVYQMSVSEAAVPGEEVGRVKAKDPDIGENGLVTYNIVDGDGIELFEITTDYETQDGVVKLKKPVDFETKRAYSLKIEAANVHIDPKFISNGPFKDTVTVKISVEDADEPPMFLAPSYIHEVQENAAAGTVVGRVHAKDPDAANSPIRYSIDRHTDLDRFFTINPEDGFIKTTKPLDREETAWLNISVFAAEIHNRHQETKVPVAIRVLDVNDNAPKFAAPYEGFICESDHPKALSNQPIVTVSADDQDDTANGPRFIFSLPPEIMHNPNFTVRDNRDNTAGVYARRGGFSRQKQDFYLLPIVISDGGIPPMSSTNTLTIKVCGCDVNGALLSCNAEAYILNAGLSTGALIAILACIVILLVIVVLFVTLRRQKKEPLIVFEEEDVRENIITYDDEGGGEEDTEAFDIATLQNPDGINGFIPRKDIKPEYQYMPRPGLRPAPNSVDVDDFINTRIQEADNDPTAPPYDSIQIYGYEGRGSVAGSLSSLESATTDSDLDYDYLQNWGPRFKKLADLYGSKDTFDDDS

[3] = target: T3, ID3 in mouse wounds (mouse (endogenous in skin wounds)) (UniProt P41133); assay: co-IP; immunoprecipitation of ID3 from lysates of day 5 and day 10 cANGPTL4-treated mouse wounds (n = 9); blots for ScxA and E47
T3 sequence: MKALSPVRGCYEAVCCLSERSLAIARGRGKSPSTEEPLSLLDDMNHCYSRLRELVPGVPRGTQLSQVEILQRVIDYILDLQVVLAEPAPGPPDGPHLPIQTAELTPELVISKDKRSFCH

[4] = target: T4, Inhibitor of DNA-binding/differentiation protein 3 (ID3), endogenous in human primary fibroblasts (human (endogenous in primary fibroblasts)), Q02535; assay: co-IP; immunoprecipitation with anti-ID3 from primary human fibroblasts; blots for ScxA and E47; conditions: remark: other sources report otherwise
T4 chain: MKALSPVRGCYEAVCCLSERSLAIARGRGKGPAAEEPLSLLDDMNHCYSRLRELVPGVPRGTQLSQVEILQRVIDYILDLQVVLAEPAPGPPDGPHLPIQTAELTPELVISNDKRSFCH

[5] = target: T5, Inhibitor of DNA-binding/differentiation protein 3 (ID3), endogenous in human primary fibroblasts (human (endogenous in primary fibroblasts)) (UniProt Q02535); assay: as above
T5 sequence: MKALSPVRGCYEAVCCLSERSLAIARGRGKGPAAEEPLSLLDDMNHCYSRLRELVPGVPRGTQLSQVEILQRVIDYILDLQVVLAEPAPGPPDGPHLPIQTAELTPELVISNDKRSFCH

[6] = target: T6, CDH11 in human scar tissues (human (endogenous in scar tissue)) (UniProt P55287); assay: proximity ligation; PLA on human scar tissues; endogenous proteins
T6 sequence: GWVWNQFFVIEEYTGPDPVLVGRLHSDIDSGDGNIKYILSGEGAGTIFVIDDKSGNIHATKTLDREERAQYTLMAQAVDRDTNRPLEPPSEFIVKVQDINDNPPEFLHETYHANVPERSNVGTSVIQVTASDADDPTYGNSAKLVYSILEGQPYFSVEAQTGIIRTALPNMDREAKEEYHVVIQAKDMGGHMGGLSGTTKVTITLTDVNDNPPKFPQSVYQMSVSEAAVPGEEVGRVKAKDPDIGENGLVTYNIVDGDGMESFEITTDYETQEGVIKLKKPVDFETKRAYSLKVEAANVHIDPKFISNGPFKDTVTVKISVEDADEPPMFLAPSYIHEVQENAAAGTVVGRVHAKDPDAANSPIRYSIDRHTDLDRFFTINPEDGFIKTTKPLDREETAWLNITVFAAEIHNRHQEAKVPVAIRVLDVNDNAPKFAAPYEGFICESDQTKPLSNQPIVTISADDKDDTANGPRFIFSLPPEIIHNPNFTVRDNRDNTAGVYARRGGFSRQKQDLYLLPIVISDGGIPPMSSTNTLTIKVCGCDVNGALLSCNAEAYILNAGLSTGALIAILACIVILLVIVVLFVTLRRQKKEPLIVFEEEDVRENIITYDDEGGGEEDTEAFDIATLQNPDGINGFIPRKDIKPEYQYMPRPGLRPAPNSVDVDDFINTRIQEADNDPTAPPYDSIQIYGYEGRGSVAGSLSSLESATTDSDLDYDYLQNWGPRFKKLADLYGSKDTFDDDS

[7] = target: T2, CDH11 of fibroblasts in mouse wounds (mouse (endogenous in skin wounds)); assay: proximity ligation; PLA on sections of ob/ob mouse wounds treated topically with exogenous recombinant cANGPTL4; only the binder purified
[8] = target: CDH2 (also known as N-cadherin), endogenous in human fibroblasts (human (endogenous in primary dermal fibroblasts)) (UniProt P19022); assay: proximity ligation; in situ PLA on human fibroblasts treated with 10 ng/mL TGFβ1 or TGFβ1 plus 12 ug/mL recombinant cANGPTL4; PLA spots per nucleus, 50 nuclei per condition; only the binder purified
[9] = target: T1, cadherin-11 (CDH11), endogenous in human primary dermal fibroblasts (human (endogenous in primary dermal fibroblasts)); assay: as above
[10] = target: T1, cadherin-11 (CDH11), endogenous in human primary dermal fibroblasts (human (endogenous in primary dermal fibroblasts)); assay: co-IP; immunoprecipitation with anti-CDH11 or anti-Frizzled from lysates of human fibroblasts treated with TGFβ in the absence or presence of recombinant cANGPTL4; blot for cANGPTL4; only the binder purified

- binding [1]: binds
Molecule: β-catenin, endogenous in human primary dermal fibroblasts (from UniProt P35222 1-781)

- binding [2]: binds
Molecule: β-catenin in mouse wounds (from UniProt Q02248 1-781)

- binding [2]: binds
B1: endogenous cANGPTL4 in mice wounds (domain or fragment, UniProt Q9Z1P8 183-405)
chain: THLHRPPRDCQELFQEGERHSGLFQIQPLGSPPFLVNCEMTSDGGWTVIQRRLNGSVDFNQSWEAYKDGFGDPQGEFWLGLEKMHSITGNRGSQLAVQLQDWDGNAKLLQFPIHLGGEDTAYSLQLTEPTANELGATNVSPNGLSLPFSTWDQDHDLRGDLNCAKSLSGGWWFGTCSHSNLNGQYFHSIPRQRQERKKGIFWKTWKGRYYPLQATTLLIQPME

- binding [3]: binds
B2: ScxA in mouse wounds (protein, UniProt Q64124 1-207)
chain: MSFAMLRSAPPPGRYLYPEVSPLSEDEDRGSESSGSDEKPCRVHAARCGLQGARRRAGGRRAAGSGPGPGGRPGREPRQRHTANARERDRTNSVNTAFTALRTLIPTEPADRKLSKIETLRLASSYISHLGNVLLVGEACGDGQPCHSGPAFFHSGRAGSPLPPPPPPPPLARDGGENTQPKQICTFCLSNQRKLSKDRDRKTAIRS

- binding [4]: no binding
B3: E12/E47, endogenous in human primary fibroblasts, P15923 1-654 (protein)
chain: MNQPQRMAPVGTDKELSDLLDFSMMFPLPVTNGKGRPASLAGAQFGGSGLEDRPSSGSWGSGDQSSSSFDPSRTFSEGTHFTESHSSLSSSTFLGPGLGGKSGERGAYASFGRDAGVGGLTQAGFLSGELALNSPGPLSPSGMKGTSQYYPSYSGSSRRRAADGSLDTQPKKVRKVPPGLPSSVYPPSSGEDYGRDATAYPSAKTPSSTYPAPFYVADGSLHPSAELWSPPGQAGFGPMLGGGSSPLPLPPGSGPVGSSGSSSTFGGLHQHERMGYQLHGAEVNGGLPSASSFSSAPGATYGGVSSHTPPVSGADSLLGSRGTTAGSSGDALGKALASIYSPDHSSNNFSSSPSTPVGSPQGLAGTSQWPRAGAPGALSPSYDGGLHGLQSKIEDHLDEAIHVLRSHAVGTAGDMHTLLPGHGALASGFTGPMSLGGRHAGLVGGSHPEDGLAGSTSLMHNHAALPSQPGTLPDLSRPPDSYSGLGRAGATAAASEIKREEKEDEENTSAADHSEEEKKELKAPRARTSPDEDEDDLLPPEQKAEREKERRVANNARERLRVRDINEAFKELGRMCQLHLNSEKPQTKLLILHQAVSVILNLEQQVRERNLNPKAACLKRREEEKVSGVVGDPQMVLSAPHPGLSEAHNPAGHM

- binding [5]: binds
B4: scleraxis (ScxA), endogenous in human primary fibroblasts (protein, UniProt Q7RTU7 1-201)
chain: MSFATLRPAPPGRYLYPEVSPLSEDEDRGSDSSGSDEKPCRVHAARCGLQGARRRAGGRRAGGGGPGGRPGREPRQRHTANARERDRTNSVNTAFTALRTLIPTEPADRKLSKIETLRLASSYISHLGNVLLAGEACGDGQPCHSGPAFFHAARAGSPPPPPPPPPARDGENTQPKQICTFCLSNQRKLSKDRDRKTAIRS

- binding [6]: binds
B5: cANGPTL4 in human scar tissues (domain or fragment, UniProt Q9BY76 179-401)
chain: SRLHRLPRDCQELFQVGERQSGLFEIQPQGSPPFLVNCKMTSDGGWTVIQRRHDGSVDFNRPWEAYKAGFGDPHGEFWLGLEKVHSITGDRNSRLAVQLRDWDGNAELLQFSVHLGGEDTAYSLQLTAPVAGQLGATTVPPSGLSVPFSTWDQDHDLRRDKNCAKSLSGGWWFGTCSHSNLNGQYFRSIPQQRQKLKKGIFWKTWRGRYYPLQATTMLIQPMA

- binding [7]: binds
- binding [8]: binds weakly
- binding [9]: binds
- binding [10]: binds
B6: recombinant human cANGPTL4 (C-terminal fibrinogen-like domain of angiopoietin-like 4) (domain or fragment, UniProt Q9BY76 179-401, looked up)
chain: SRLHRLPRDCQELFQVGERQSGLFEIQPQGSPPFLVNCKMTSDGGWTVIQRRHDGSVDFNRPWEAYKAGFGDPHGEFWLGLEKVHSITGDRNSRLAVQLRDWDGNAELLQFSVHLGGEDTAYSLQLTAPVAGQLGATTVPPSGLSVPFSTWDQDHDLRRDKNCAKSLSGGWWFGTCSHSNLNGQYFRSIPQQRQKLKKGIFWKTWRGRYYPLQATTMLIQPMA
notes: angiopoietin-like 4 (ANGPTL4), human, C-terminal fibrinogen-like domain (cANGPTL4); also called recombinant cANGPTL4 protein; source: purified protein for SPR, added to fibroblast cultures and applied to wounds

Reference: PMC5524754, “Angiopoietin-like 4 induces a β-catenin-mediated upregulation of ID3 in fibroblasts to reduce scar collagen expression” (Scientific Reports, 2017)
